Experimental data from the supplement of paper PMC8728848.
This is one part of the list.

What was measured:
Experiment in all cases: glycan array binding signal (z-score within array); higher = stronger binding
Settings in all cases: glycan notation: IUPAC condensed, linker removed
Fuc(a1-2)Gal = biological target: Fuc(a1-2)Gal
Outline: (§1)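 Columns mapping to the same glycan were averaged after glycan names were converted to IUPAC-condensed notation. The data come from 3228 arrays in the Consortium for Functional Glycomics database, limited to those with an available protein sequence. Binding is reported as a within-array Z-score averaged across arrays of one protein sequence and across linkers.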

Fuc(a1-2)Gal(b1-3)GalNAc = biological target: Fuc(a1-2)Gal(b1-3)GalNAc
Outline: as §1

[1] = biological target: Fuc(a1-2)Gal(b1-3)GalNAc(b1-3)Gal
Outline: as §1

[2] = biological target: Fuc(a1-2)Gal(b1-3)GalNAc(b1-3)Gal(a1-4)Gal(b1-4)Glc
Outline: as §1

[3] = biological target: Fuc(a1-2)Gal(b1-3)GalNAc(b1-4)[Neu5Ac(a2-3)]Gal(b1-4)Glc
Outline: as §1

Fuc(a1-2)Gal(b1-3)GlcNAc = biological target: Fuc(a1-2)Gal(b1-3)GlcNAc
Outline: as §1

[4] = biological target: Fuc(a1-2)Gal(b1-3)GlcNAc(b1-2)Man(a1-3)[Fuc(a1-2)Gal(b1-3)GlcNAc(b1-2)Man(a1-6)]Man(b1-4)GlcNAc(b1-4)GlcNAc
Outline: as §1

[5] = biological target: Fuc(a1-2)Gal(b1-3)GlcNAc(b1-3)Gal(b1-4)Glc
Outline: as §1

[6] = biological target: Fuc(a1-2)Gal(b1-3)GlcNAc(b1-3)[Gal(b1-4)[Fuc(a1-3)]GlcNAc(b1-6)]Gal(b1-4)Glc
Outline: as §1

[7] = biological target: Fuc(a1-2)Gal(b1-3)[Fuc(a1-4)]GlcNAc
Outline: as §1

[8] = biological target: Fuc(a1-2)Gal(b1-3)[Fuc(a1-4)]GlcNAc(b1-2)Man(a1-3)[Fuc(a1-2)Gal(b1-3)[Fuc(a1-4)]GlcNAc(b1-2)Man(a1-6)]Man(b1-4)GlcNAc(b1-4)GlcNAc
Outline: as §1

Fuc(a1-2)Gal(b1-4)Glc = biological target: Fuc(a1-2)Gal(b1-4)Glc
Outline: as §1

Fuc(a1-2)Gal(b1-4)Glc6S = biological target: Fuc(a1-2)Gal(b1-4)Glc6S
Outline: as §1

Fuc(a1-2)Gal(b1-4)GlcNAc = biological target: Fuc(a1-2)Gal(b1-4)GlcNAc
Outline: as §1

[9] = biological target: Fuc(a1-2)Gal(b1-4)GlcNAc(b1-2)Man(a1-3)[Fuc(a1-2)Gal(b1-4)GlcNAc(b1-2)Man(a1-6)]Man(b1-4)GlcNAc(b1-4)GlcNAc
Outline: as §1

[10] = biological target: Fuc(a1-2)Gal(b1-4)GlcNAc(b1-3)Gal(b1-4)GlcNAc
Outline: as §1

[11] = biological target: Fuc(a1-2)Gal(b1-4)GlcNAc(b1-3)Gal(b1-4)GlcNAc(b1-3)Gal(b1-4)GlcNAc
Outline: as §1

[12] = biological target: Fuc(a1-2)Gal(b1-4)GlcNAc6S
Outline: as §1

[13] = biological target: Fuc(a1-2)Gal(b1-4)[Fuc(a1-3)]GlcNAc
Outline: as §1

[14] = biological target: Fuc(a1-2)Gal(b1-4)[Fuc(a1-3)]GlcNAc(b1-2)Man(a1-3)[Fuc(a1-2)Gal(b1-4)[Fuc(a1-3)]GlcNAc(b1-2)Man(a1-6)]Man(b1-4)GlcNAc(b1-4)GlcNAc
Outline: as §1

[15] = biological target: Fuc(a1-2)Gal(b1-4)[Fuc(a1-3)]GlcNAc(b1-3)Gal(b1-4)[Fuc(a1-3)]GlcNAc
Outline: as §1

[16] = biological target: Fuc(a1-2)Gal(b1-4)[Fuc(a1-3)]GlcNAc(b1-3)Gal(b1-4)[Fuc(a1-3)]GlcNAc(b1-3)Gal(b1-4)[Fuc(a1-3)]GlcNAc
Outline: as §1

Fuc(a1-2)Gal6S(b1-4)Glc = biological target: Fuc(a1-2)Gal6S(b1-4)Glc
Outline: as §1

[17] = biological target: Fuc(a1-2)Gal6S(b1-4)Glc6S
Outline: as §1

[18] = biological target: Fuc(a1-2)Gal6S(b1-4)GlcNAc
Outline: as §1

Fuc(a1-2)[Gal(a1-3)]Gal = biological target: Fuc(a1-2)[Gal(a1-3)]Gal
Outline: as §1

[19] = biological target: Fuc(a1-2)[Gal(a1-3)]Gal(b1-3)GlcNAc
Outline: as §1

[20] = biological target: Fuc(a1-2)[Gal(a1-3)]Gal(b1-3)GlcNAc(b1-2)Man(a1-3)[Fuc(a1-2)[Gal(a1-3)]Gal(b1-3)GlcNAc(b1-2)Man(a1-6)]Man(b1-4)GlcNAc(b1-4)GlcNAc
Outline: as §1

[21] = biological target: Fuc(a1-2)[Gal(a1-3)]Gal(b1-4)Glc
Outline: as §1

[22] = biological target: Fuc(a1-2)[Gal(a1-3)]Gal(b1-4)GlcNAc
Outline: as §1

[23] = biological target: Fuc(a1-2)[Gal(a1-3)]Gal(b1-4)GlcNAc(b1-2)Man(a1-3)[Fuc(a1-2)[Gal(a1-3)]Gal(b1-4)GlcNAc(b1-2)Man(a1-6)]Man(b1-4)GlcNAc(b1-4)GlcNAc
Outline: as §1

[24] = biological target: Fuc(a1-2)[Gal(a1-3)]Gal(b1-4)[Fuc(a1-3)]GlcNAc
Outline: as §1

[25] = biological target: Fuc(a1-2)[Gal(a1-4)]Gal(b1-4)GlcNAc
Outline: as §1

[26] = biological target: Fuc(a1-2)[GalNAc(a1-3)]Gal
Outline: as §1

[27] = biological target: Fuc(a1-2)[GalNAc(a1-3)]Gal(b1-3)GlcNAc
Outline: as §1

[28] = biological target: Fuc(a1-2)[GalNAc(a1-3)]Gal(b1-3)GlcNAc(b1-2)Man(a1-3)[Fuc(a1-2)[GalNAc(a1-3)]Gal(b1-3)GlcNAc(b1-2)Man(a1-6)]Man(b1-4)GlcNAc(b1-4)GlcNAc
Outline: as §1

[29] = biological target: Fuc(a1-2)[GalNAc(a1-3)]Gal(b1-4)Glc
Outline: as §1

[30] = biological target: Fuc(a1-2)[GalNAc(a1-3)]Gal(b1-4)GlcNAc
Outline: as §1

[31] = biological target: Fuc(a1-2)[GalNAc(a1-3)]Gal(b1-4)GlcNAc(b1-2)Man(a1-3)[GalNAc(a1-3)[Fuc(a1-2)]Gal(b1-4)GlcNAc(b1-2)Man(a1-6)]Man(b1-4)GlcNAc(b1-4)GlcNAc
Outline: as §1

[32] = biological target: Fuc(a1-2)[GalNAc(a1-3)]Gal(b1-4)GlcNAc(b1-3)Gal(b1-4)GlcNAc
Outline: as §1

[33] = biological target: Fuc(a1-2)[GalNAc(a1-3)]Gal(b1-4)GlcNAc(b1-3)Gal(b1-4)GlcNAc(b1-3)Gal(b1-4)GlcNAc
Outline: as §1

[34] = biological target: Fuc(a1-2)[GalNAc(a1-3)]Gal(b1-4)[Fuc(a1-3)]GlcNAc
Outline: as §1

[35] = biological target: Fuc(a1-2)[GalNAc(a1-4)]Gal(b1-4)GlcNAc
Outline: as §1

[36] = biological target: Fuc(a1-2)[GalNAc(b1-3)]Gal
Outline: as §1

Fuc(a1-3)GlcNAc = biological target: Fuc(a1-3)GlcNAc
Outline: as §1

[37] = biological target: Fuc(a1-3)[Gal(b1-4)]Glc6S
Outline: as §1

[38] = biological target: Fuc(a1-3)[Gal(b1-4)]GlcNAc
Outline: as §1

[39] = biological target: Fuc(a1-3)[Gal(b1-4)]GlcNAc(b1-2)Man(a1-3)[Fuc(a1-3)[Gal(b1-4)]GlcNAc(b1-2)Man(a1-6)]Man(b1-4)GlcNAc(b1-4)GlcNAc
Outline: as §1

[40] = biological target: Fuc(a1-3)[Gal(b1-4)]GlcNAc(b1-2)Man(a1-6)[Gal(b1-4)GlcNAc(b1-2)Man(a1-3)]Man(b1-4)GlcNAc(b1-4)GlcNAc
Outline: as §1

[41] = biological target: Fuc(a1-3)[Gal(b1-4)]GlcNAc(b1-3)Gal(b1-3)[Fuc(a1-4)]GlcNAc
Outline: as §1

[42] = biological target: Fuc(a1-3)[Gal(b1-4)]GlcNAc(b1-4)Gal(b1-4)[Fuc(a1-3)]GlcNAc
Outline: as §1

[43] = biological target: Fuc(a1-3)[Gal(b1-4)]GlcNAc(b1-4)Gal(b1-4)[Fuc(a1-3)]GlcNAc(b1-4)Gal(b1-4)[Fuc(a1-3)]GlcNAc
Outline: as §1

[44] = biological target: Fuc(a1-3)[Gal(b1-4)]GlcNAc6S
Outline: as §1

[45] = biological target: Fuc(a1-3)[Gal3S(b1-4)]Glc6S
Outline: as §1

[46] = biological target: Fuc(a1-3)[Gal3S(b1-4)]GlcNAc
Outline: as §1

[47] = biological target: Fuc(a1-3)[Gal3S(b1-4)]GlcNAc6S
Outline: as §1

[48] = biological target: Fuc(a1-3)[GalNAc(b1-4)]GlcNAc
Outline: as §1

Fuc(a1-4)GlcNAc = biological target: Fuc(a1-4)GlcNAc
Outline: as §1

Fuc(b1-3)GlcNAc = biological target: Fuc(b1-3)GlcNAc
Outline: as §1

Gal(a1-2)Gal = biological target: Gal(a1-2)Gal
Outline: as §1

B1: CCL2 (Coprinopsis cinerea), B3GA02 (protein)
chain: MDSPAVTLSAGNYIIYNRVLSPRGEKLALTYPGRQRTPVTVSPLDGSSEQAWILRSYDSNSNTWTISPVGSPNSQIGWGAGNVPVVLPPNNYVWTLTLTSGGYNIQDGKRTVSWSLNNATAGEEVSIGADATFSGRWVIEKV
For B1, the “glycan array binding signal (z-score)” value (Fuc(a1-2)Gal) was -0.279, the “glycan array binding signal (z-score)” value (Fuc(a1-2)Gal(b1-3)GalNAc) was -0.289 and the “glycan array binding signal (z-score)” value [1] was -0.195. The “glycan array binding signal (z-score)” value [2] was -0.286, the “glycan array binding signal (z-score)” value [3] was -0.286 and the “glycan array binding signal (z-score)” value (Fuc(a1-2)Gal(b1-3)GlcNAc) was -0.282. The “glycan array binding signal (z-score)” value [4] was -0.259, the “glycan array binding signal (z-score)” value [5] was -0.282 and the “glycan array binding signal (z-score)” value [6] was 1.08. The “glycan array binding signal (z-score)” value [7] was -0.292, the “glycan array binding signal (z-score)” value [8] was -0.067 and the “glycan array binding signal (z-score)” value (Fuc(a1-2)Gal(b1-4)Glc) was -0.273. For the same binder, the “glycan array binding signal (z-score)” value (Fuc(a1-2)Gal(b1-4)Glc6S) was -0.29, the “glycan array binding signal (z-score)” value (Fuc(a1-2)Gal(b1-4)GlcNAc) was -0.271 and the “glycan array binding signal (z-score)” value [9] was -0.298. For the same binder, the “glycan array binding signal (z-score)” value [10] was -0.298, the “glycan array binding signal (z-score)” value [11] was -0.269 and the “glycan array binding signal (z-score)” value [12] was -0.282. The “glycan array binding signal (z-score)” value [13] was -0.077, the “glycan array binding signal (z-score)” value [14] was -0.037 and the “glycan array binding signal (z-score)” value [15] was -0.241. The “glycan array binding signal (z-score)” value [16] was -0.135, the “glycan array binding signal (z-score)” value (Fuc(a1-2)Gal6S(b1-4)Glc) was -0.28 and the “glycan array binding signal (z-score)” value [17] was -0.288. For the same binder, the “glycan array binding signal (z-score)” value [18] was -0.289, the “glycan array binding signal (z-score)” value (Fuc(a1-2)[Gal(a1-3)]Gal) was -0.276 and the “glycan array binding signal (z-score)” value [19] was -0.293. For the same binder, the “glycan array binding signal (z-score)” value [20] was -0.251, the “glycan array binding signal (z-score)” value [21] was -0.297 and the “glycan array binding signal (z-score)” value [22] was -0.29. For the same binder, the “glycan array binding signal (z-score)” value [23] was -0.268, the “glycan array binding signal (z-score)” value [24] was -0.275 and the “glycan array binding signal (z-score)” value [25] was -0.288. For the same binder, the “glycan array binding signal (z-score)” value [26] was -0.291, the “glycan array binding signal (z-score)” value [27] was -0.291 and the “glycan array binding signal (z-score)” value [28] was -0.251. For the same binder, the “glycan array binding signal (z-score)” value [29] was -0.293, the “glycan array binding signal (z-score)” value [30] was -0.286 and the “glycan array binding signal (z-score)” value [31] was -0.269. The “glycan array binding signal (z-score)” value [32] was -0.273, the “glycan array binding signal (z-score)” value [33] was -0.23 and the “glycan array binding signal (z-score)” value [34] was -0.28. For the same binder, the “glycan array binding signal (z-score)” value [35] was -0.273, the “glycan array binding signal (z-score)” value [36] was -0.266 and the “glycan array binding signal (z-score)” value (Fuc(a1-3)GlcNAc) was -0.278. The “glycan array binding signal (z-score)” value [37] was -0.29, the “glycan array binding signal (z-score)” value [38] was 0.752 and the “glycan array binding signal (z-score)” value [39] was 3.53. The “glycan array binding signal (z-score)” value [40] was -0.299, the “glycan array binding signal (z-score)” value [41] was 2.08 and the “glycan array binding signal (z-score)” value [42] was 4.28. For the same binder, the “glycan array binding signal (z-score)” value [43] was 3.56, the “glycan array binding signal (z-score)” value [44] was 2.61 and the “glycan array binding signal (z-score)” value [45] was -0.182. The “glycan array binding signal (z-score)” value [46] was -0.279, the “glycan array binding signal (z-score)” value [47] was -0.226 and the “glycan array binding signal (z-score)” value [48] was 4.84. For the same binder, the “glycan array binding signal (z-score)” value (Fuc(a1-4)GlcNAc) was -0.281, the “glycan array binding signal (z-score)” value (Fuc(b1-3)GlcNAc) was -0.267 and the “glycan array binding signal (z-score)” value (Gal(a1-2)Gal) was -0.29.
